Laboratory results published in PubChem BioAssay AID686979 (National Center for Advancing Translational Sciences (NCATS), 2013).
About 50,000 (12%) of roughly 420,000 compounds were called active. Inconclusive means that the source gave no clear call. Such entries were picked first, then a sample of the others. Calls come from the whole dose curve; as a rule, active = well fitted inhibition curve with a large enough effect; inconclusive = small, poorly fitted or top-dose-only effect; inactive = flat fitted curve, though single readings scatter. No potency is given beside an inconclusive call; the fits are too rough.

Experiment: qHTS for Inhibitors of human tyrosyl-DNA phosphodiesterase 1 (TDP1): qHTS in cells in presence of CPT; note: nearly all actives have a fitted effect of over 55% in size
Conditions: chicken DT40 Tdp1-/-;hTDP1 cells + 20 nM CPT, ATP luminescence, 48 h; activity change, negative = growth inhibition: at 46.2 µM (top of the series) unless noted
Summary of the method: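 Chicken DT40 Tdp1-/- cells stably complemented with human TDP1 were seeded at 400 cells/well in medium containing 20 nM camptothecin, exposed to pin-transferred compounds, and grown at 37 °C for at least 48 hr. Viability was read as ATP luminescence.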
% is set by controls: 0 for no effect and ±100 for the full control effect; potency is the fitted concentration of half-maximal effect; tags give direction and shape of the fitted curve.

Row | Compound | Potency | activity change, negative = growth inhibition
1 | COC(=O)C1=C(c2ccc(F)cc2OCc2ccccc2)C[C@@H]2CC[C@H]1N2C(=O)NCc1ccccc1Br | inconclusive [inhibitor, single point] | 
2 | CCOC(=O)c1c(/N=C/c2c(O)n(-c3ccccc3F)c(=S)[nH]c2=O)sc2c1CCCC2 | inconclusive [inhibitor, single point] | 
3 | COc1c2c(c(CC=C(C)C)c3oc(=O)c(-c4ccc(O)cc4)c(O)c13)OC(C)(C)C=C2 |  | inactive: -4.09%
4 | C=CCn1c(O)c(C(CC)=NC(C)c2ccccc2)c(=O)[nH]c1=O (stereo not given) | inconclusive [inhibitor, single point] | 
5 | CCCCn1c(O)c(C(CC)=NCc2ccc3c(c2)OCO3)c(=O)[nH]c1=O | inconclusive [inhibitor, single point] | 
6 | C=CCn1nc(C(=O)N2CCOCC2)cc1-c1sc(NC(=O)c2ccccc2)nc1C | active: 14.6 µM | 
7 | OC[C@H]1O[C@@H](n2cnc3cc(Cl)c(Cl)cc32)[C@H](O)[C@H]1O | active: 16.4 µM | 
8 | CC(=O)Nc1ccc(S(=O)(=O)N2Cc3ccccc3-n3nncc3C2)cc1 | active: 14.6 µM | 
9 | FC(F)(F)Oc1ccc(NC2=NCCCS2)cc1 |  | inactive: -20.6%
10 | Fc1ccc(CCNCc2ccc(Br)cc2)cc1 | inconclusive [inhibitor, single point] | 
11 | Cc1cc(Oc2cc(NN3CCCCC3)c([N+](=O)[O-])cc2[N+](=O)[O-])ccc1[N+](=O)[O-] |  | inconclusive: -31.5% [inhibitor]
12 | Cc1nn(-c2ccccc2)c2c1C(c1ccc(F)cc1F)C(C#N)=C(N)O2 (stereo not given) | inconclusive [inhibitor, single point] | 
13 | COc1ccc(C(=O)C2CCCN(Cc3ccon3)C2)c(OC)c1 (stereo not given) | inconclusive [inhibitor, partial curve] | 
14 | COC1C(O)C(C)O[C@@H](OC2CC[C@@]3(C)C4CC[C@]5(C)C(C6=CC(=O)OC6)CC[C@@]5(O)C4CC[C@@H]3C2)C1O (stereo not given in full) | active: 1.03 µM | 
15 | O=C1CNC(c2ccccc2Cl)c2cc(Br)ccc2N1 (stereo not given) |  | inactive: -10.4%
16 | O=c1[nH]c2ccccc2n1C1CCN(C(c2nnnn2C2CCCCC2)C2CC2)CC1 (stereo not given) | inconclusive [inhibitor, single point] | 
17 | CC12CCC3C(CC=C4CC(O)CCC43C)C1C/C(=C\c1cccc(F)c1)C2=O (stereo not given) | inconclusive [inhibitor, partial curve] | 
18 | CCCNC(=O)N1[C@H]2CC[C@@H]1C(C(=O)OC)=C(c1ccc(OC(F)(F)F)cc1)C2 | inconclusive [inhibitor, single point] | 

Row | Compound | Potency | activity change, negative = growth inhibition
19 | NCC(=O)c1ccc(Cl)c(Cl)c1 | inconclusive [inhibitor, single point] | 
20 | O=c1cccc2n1CC1CC2CN(Cc2c(F)cccc2Cl)C1 (stereo not given) | inconclusive [inhibitor, single point] | 
21 | S=C(N1CCCCCC1)N1CC1 |  | inactive: 2.41%
22 | CCOC(=O)CCCCCNC(=O)c1c(O)[nH]c(=O)[nH]c1=O |  | inactive: -1.39%
23 | Cc1c(Cl)cccc1N1C(=O)NC(=O)/C(=C\c2cc(C)n(-c3cccc(C(=O)O)c3C)c2C)C1=O |  | inactive: 0.449%
24 | CN(C)P(=S)(Nc1ccccc1)C(Cl)(Cl)Cl (stereo not given) |  | inactive: -3.66%
25 | CCCCOc1ccc(C(=O)NCC(=O)N2CCN(C/C=C/c3ccccc3)CC2)cc1 | inconclusive [inhibitor, single point] | 
26 | Cc1ccc(S(=O)(=O)N2CCCCC2)cc1NC(=O)Nc1ccc(Cl)cc1Cl | active: 2.59 µM | 
27 | Cc1ccc(-c2csc(NC(CO)c3nc4ccccc4n3CCOCCO)n2)cc1 (stereo not given) | inconclusive [inhibitor, single point] | 
28 | O=C(COc1ccc(Cl)cc1Cl)N1CCN(C/C=C/c2ccccc2)CC1 | inconclusive [inhibitor, single point] | 
29 | O=C(NCCCN1CCCC1)c1ccc2c(c1)N(Cc1cccc(Cl)c1)C(=O)c1ccccc1S2=O (stereo not given) | inconclusive [inhibitor, single point] | 
30 | O=S(=O)(c1ccccc1)N1CCCCC1c1cccnc1 (stereo not given) | inconclusive [inhibitor, partial curve] | 
31 | O=c1[nH]c(CN2CC=C(c3ccccc3)CC2)nc2scc(-c3ccccc3)c12 | inconclusive [inhibitor, single point] | 
32 | COc1ccccc1OCCCn1cc(C=O)c2ccccc21 | inconclusive [inhibitor, single point] | 
33 | CC(=O)C1CCC2C3CCC4CC(O)CCC4(C)C3CCC12C#N (stereo not given) | inconclusive [inhibitor, single point] | 
34 | CCC(C)C(=O)c1c(O)c(C)c2oc3c(C)c(O)c(C(=O)C(C)CC)c(O)c3c2c1O (stereo not given) | inconclusive [inhibitor, single point] | 
35 | O=C(CCn1c(=O)oc2ccccc21)N1CCN(C(c2ccccc2)c2ccccc2)CC1 | active: 16.4 µM | 
